According to PubChem BioAssay AID1468 (National Center for Advancing Translational Sciences (NCATS), 2008):
The whole screen tested about 280,000 compounds, of which about 1,100 (0.39%) were called active. This list was built around the results that the source calls inconclusive (neither active nor inactive); the mix of calls is not that of the screen. Calls follow the shape of the dose curve; as a rule, active = well fitted inhibition curve with a large enough effect; inconclusive = small, poorly fitted or top-dose-only effect, or effect the other way; inactive = flat fitted curve, though single readings scatter. Potencies of inconclusive entries are left out as doubtful fits.

target: Microtubule-associated protein tau (Homo sapiens) (UniProt P10636); assay: qHTS for Inhibitors of Tau Fibril Formation, Fluorescence Polarization; conditions: K18 P301L tau heparin fibrillization, Alexa594 FP, 6 h; series mostly up to 57.7 µM; also: nearly all actives have a fitted effect of over 55% in size
Outline: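 Recombinant K18 P301L […], labeled with Alexa 594 at 0.24 uM over 15 uM unlabeled; heparin inducer 20 uM final; 37 C, 6 hr; FP endpoint.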
Potency is read from the fitted curve at half-maximal effect; tags tell the direction and shape of the fitted curve.

Sequence of UniProt P10636 (P10636 whole entry, looked up): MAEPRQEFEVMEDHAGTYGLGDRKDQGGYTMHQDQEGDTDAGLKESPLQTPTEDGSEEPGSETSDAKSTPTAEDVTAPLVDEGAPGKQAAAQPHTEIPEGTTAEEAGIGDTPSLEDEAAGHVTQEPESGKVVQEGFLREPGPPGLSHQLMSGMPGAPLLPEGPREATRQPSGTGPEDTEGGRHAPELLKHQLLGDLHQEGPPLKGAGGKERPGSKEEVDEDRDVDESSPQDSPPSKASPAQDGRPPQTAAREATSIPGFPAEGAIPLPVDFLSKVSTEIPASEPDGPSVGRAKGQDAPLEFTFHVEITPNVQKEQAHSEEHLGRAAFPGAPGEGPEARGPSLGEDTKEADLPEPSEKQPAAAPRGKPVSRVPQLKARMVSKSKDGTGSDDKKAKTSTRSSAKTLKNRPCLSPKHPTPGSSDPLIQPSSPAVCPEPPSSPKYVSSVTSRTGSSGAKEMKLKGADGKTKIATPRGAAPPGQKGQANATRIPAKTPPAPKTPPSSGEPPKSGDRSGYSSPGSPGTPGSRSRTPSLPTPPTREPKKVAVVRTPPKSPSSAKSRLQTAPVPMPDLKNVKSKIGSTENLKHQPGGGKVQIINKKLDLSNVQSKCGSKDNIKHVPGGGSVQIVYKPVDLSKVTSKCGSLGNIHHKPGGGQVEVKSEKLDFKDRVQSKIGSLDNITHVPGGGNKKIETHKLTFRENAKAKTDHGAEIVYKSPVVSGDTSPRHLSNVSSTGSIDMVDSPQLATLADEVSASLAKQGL

Compound | Potency
CCc1ccc(C(=O)Nc2cccc(-c3nc4cc(C(C)C)ccc4o3)c2)cc1 | inconclusive [inhibitor, partial curve]
CC(C)c1ccc(C2C3=C(CC(C)(C)CC3=O)NC3=C2C(=O)c2ccccc23)cc1 (centres undefined) | inconclusive [activator, full curve]
Oc1ccc(Nc2nc(Cl)nc(NCc3ccco3)n2)cc1 | inconclusive [activator, full curve, poor fit]
Cc1cccc(-n2c(N)c(C(=O)N3CCN(C)CC3)sc2=S)c1 | inconclusive [inhibitor, partial curve]
O=S(=O)(c1ccccc1)c1nc(-c2ccco2)oc1SCc1ccc(F)cc1 | inconclusive [inhibitor, partial curve]
COc1ccccc1OC(=O)c1cc(Cl)nc2ccccc12 | inconclusive [inhibitor, full curve, poor fit]
Cc1ccc(-c2csc(NNC(=O)c3ccccc3)n2)cc1 | inconclusive [inhibitor, single point]
COc1ccc(N2CCN(c3nc4ccccc4n4c(C)nnc34)CC2)cc1 | inconclusive [inhibitor, single point]
CCOC(=O)CC(NS(=O)(=O)c1cc(-c2cc(C)no2)ccc1C)c1ccc(C)cc1 (centres undefined) | inactive
S=C(NCCSCc1ccc(Cl)cc1Cl)Nc1ccccc1 | inconclusive [inhibitor, partial curve, poor fit]
COc1ccccc1NC(=O)CSC(N)=O | inconclusive [inhibitor, single point]
Cc1cc(C)c2c(=O)n(CC(=O)Nc3cccc(F)c3)sc2n1 | active: 14.1 µM
CC(=O)N=c1sc(S(N)(=O)=O)nn1C | inconclusive [inhibitor, partial curve, poor fit]
Cc1cc(O)c(-c2n[nH]c3c2C(c2cccc(O)c2)N(Cc2cccnc2)C3=O)cc1Cl (centres undefined) | inactive
CN(C(=O)CSc1nc2ccccc2[nH]1)c1ccc(F)cc1 | inactive
O=C(Nc1nc(-c2ccc(S(=O)(=O)N3CCCCCC3)cc2)cs1)c1cccs1 | inconclusive [inhibitor, partial curve]
Cc1ccc2occ(CC(=O)Nc3c(C(=O)Nc4ccc(Cl)cc4)oc4ccccc34)c2c1 | inconclusive [inhibitor, partial curve]
COc1ccc(OC)c(Nc2nc(-c3sc(N)nc3C)cs2)c1 | inactive
COc1ccc(NC(=O)c2cccc(-n3cnnn3)c2)cc1 | inactive
COCc1oc2ccc(NS(=O)(=O)c3ccc(C)cc3)cc2c1C(=O)OC | inactive
Cc1ccc(OCCSc2nc3ccc(NC(=O)c4ccco4)cc3s2)cc1 | inconclusive [inhibitor, partial curve, poor fit]
CCc1nnc(NC(=O)CSc2nc3cc4c(cc3cc2CC)OCCO4)s1 | inconclusive [inhibitor, single point]

Compound | Potency
O=C1C(Cl)=C(N2CCCCC2)C(=O)C(Cl)=C1c1cnc(N2CCCCC2)s1 | active: 22.4 µM
CC(=O)c1cccc(NC(=O)Cn2cc(C(=O)c3cccc(Cl)c3)c(=O)c3ccc(C)nc32)c1 | inconclusive [inhibitor, partial curve]
COc1ccc(OCc2ccc(-c3nc(C#N)c(NCc4cccnc4)o3)o2)cc1 | inconclusive [activator, partial curve]
Cc1cc(C)cc(NC(=O)Cn2cnc3c(nnn3Cc3ccc(F)cc3)c2=O)c1 | inconclusive [inhibitor, full curve, poor fit]
CCC(=O)N1CCCc2cc(S(=O)(=O)N3CCC(C(=O)Nc4ccc(C#N)cc4)CC3)ccc21 | inactive
COc1cc(/C=N/Nc2nncn2N)ccc1OCc1c(C)no[n+]1[O-] | inconclusive [inhibitor, full curve]
Cc1ccsc1/C=N/n1cnnc1 | inactive
Cc1ccc2oc(C(Cl)(Cl)Cl)cc(=O)c2c1 | inconclusive [inhibitor, partial curve, poor fit]
Cc1cc([N+](=O)[O-])ccc1NC(=O)Nc1ccccc1F | inconclusive [inhibitor, single point]
CN(C1CCCCC1)S(=O)(=O)c1cccc(C#N)c1 | inactive
O=C(Nc1nccs1)c1ccc(-c2ccccc2Cl)o1 | inconclusive [inhibitor, single point]
O=C(COC(=O)CC(c1ccccc1)c1ccccc1)Nc1ccc(F)c(F)c1 | inconclusive [inhibitor, partial curve]
COc1ccc(NC(=O)c2cc3c(=O)n(Cc4cccnc4)ccc3nc2C)c(OC)c1 | inactive
C/C(=N\NC(=O)CSCc1ccccc1Cl)c1cc(O)ccc1O | inconclusive [activator, single point]
CCc1ccc(OCc2ccccc2C(=O)Nc2ccc3nc(C)cc(N)c3c2)cc1 | inconclusive [inhibitor, full curve]
CCc1ccc(OCC(=O)N(C)C2CCS(=O)(=O)C2)cc1 (centres undefined) | inactive
Cc1ccc(CNC(=O)Cn2ccn(-c3ccc(F)cc3)c(=O)c2=O)cc1 | inconclusive [inhibitor, partial curve]
CC(NC(=O)CSc1nc(-c2ccccc2F)nc2cc(=O)[nH]n12)c1nc2ccccc2n1C (centres undefined) | inactive
Cc1cccc(CN2C(=O)c3ccccc3S(=O)(=O)c3ccc(C(=O)NC4CCCCC4)cc32)c1 | inconclusive [inhibitor, single point]
N#CCCS(=O)(=O)c1nnnn1-c1ccccc1 | inconclusive [inhibitor, full curve, poor fit]
COc1ccc(NS(=O)(=O)c2ccc(C)c(NC(=O)NC3CCCCC3)c2)cc1 | inconclusive [inhibitor, single point]
COc1ccc(CCn2c(NN)nc3c2c(=O)[nH]c(=O)n3C)cc1 | inconclusive [inhibitor, partial curve]
